Out of some 310,000 compounds screened, about 14,000 (4.5%) showed an effect of 50% or more. Effects have a minus sign here. Some of the results follow.
target: human ether-à-go-go-related gene (hERG) potassium channel (human, UniProt Q12809); assay: primary screen, population patch clamp on CHO cells stably expressing hERG
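Also: peak tail current of the secondary pulse compared with the same well before compound.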

Chain of human ether-à-go-go-related gene (hERG) potassium channel (Q12809 whole entry, looked up): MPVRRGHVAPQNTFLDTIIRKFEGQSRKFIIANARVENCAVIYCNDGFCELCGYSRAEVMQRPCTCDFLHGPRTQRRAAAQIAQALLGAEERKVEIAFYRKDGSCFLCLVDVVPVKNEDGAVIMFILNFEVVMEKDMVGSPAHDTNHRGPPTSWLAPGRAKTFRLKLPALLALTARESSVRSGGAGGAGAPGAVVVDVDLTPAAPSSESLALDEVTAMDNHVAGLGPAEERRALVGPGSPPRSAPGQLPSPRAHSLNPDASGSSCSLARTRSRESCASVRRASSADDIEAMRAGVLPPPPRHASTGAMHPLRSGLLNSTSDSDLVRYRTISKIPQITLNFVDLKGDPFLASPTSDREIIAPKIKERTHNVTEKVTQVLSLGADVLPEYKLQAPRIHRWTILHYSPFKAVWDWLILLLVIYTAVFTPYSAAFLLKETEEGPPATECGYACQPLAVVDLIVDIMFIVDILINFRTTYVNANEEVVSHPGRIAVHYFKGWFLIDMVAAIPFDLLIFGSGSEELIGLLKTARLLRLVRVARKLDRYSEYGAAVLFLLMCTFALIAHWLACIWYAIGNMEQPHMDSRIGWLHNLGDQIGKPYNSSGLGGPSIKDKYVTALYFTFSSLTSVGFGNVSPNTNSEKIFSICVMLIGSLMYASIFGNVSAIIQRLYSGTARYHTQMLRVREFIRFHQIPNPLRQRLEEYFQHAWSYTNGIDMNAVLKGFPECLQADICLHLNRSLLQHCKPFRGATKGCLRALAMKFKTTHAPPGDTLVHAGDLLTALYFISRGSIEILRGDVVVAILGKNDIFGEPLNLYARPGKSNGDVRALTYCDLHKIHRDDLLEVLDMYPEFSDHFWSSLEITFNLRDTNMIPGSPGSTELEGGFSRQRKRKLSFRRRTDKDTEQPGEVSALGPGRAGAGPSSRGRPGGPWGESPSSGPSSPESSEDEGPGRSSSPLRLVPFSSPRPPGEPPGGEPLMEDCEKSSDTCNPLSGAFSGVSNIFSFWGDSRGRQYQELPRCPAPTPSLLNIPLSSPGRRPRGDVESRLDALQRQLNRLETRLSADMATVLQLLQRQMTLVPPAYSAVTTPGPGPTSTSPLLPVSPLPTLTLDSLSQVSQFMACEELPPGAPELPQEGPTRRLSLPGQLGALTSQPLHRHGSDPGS

First: COc1cc(C(=O)NCc2ccc(OCCN(C)C)cc2)cc(OC)c1OC.Cl
Second: Cc1ccc(S(=O)(=O)N(C)C)cc1NC(=O)c1cc(=O)c2ccccc2o1
The “hERG current change (%, negative = inhibition) at 10uM” value of the first is higher: 8.72% for the first, 2.36% for the second.

First: O=C(NC(=S)Nc1c(Cl)ccc2nsnc12)c1ccccc1F
Second: O=C(NNc1nc2c(F)cccc2s1)c1ccccc1
The “hERG current change (%, negative = inhibition) at 10uM” value of the first is lower: 21.2% for the first, 43.4% for the second.

Compared with `Cl.OC(c1ccccc1)C(CN1CCOCC1)c1ccccc1` (centres unmarked), `Cc1nc2ccccc2n1CCN1CCOCC1.Cl` is higher in “hERG current change (%, negative = inhibition) at 10uM” value: -6.03% for the first, 23.3% for the second.

First: Cl.Fc1ccccc1C(c1nnnn1C1CCCC1)N1CCN(Cc2ccccc2)CC1 (centres unmarked)
Second: COc1ccc2cc(-c3[nH]ncc3CN3CCCN(c4ccccc4)CC3)ccc2c1
The “hERG current change (%, negative = inhibition) at 10uM” value of the first is lower: -18.9% for the first, -18.5% for the second.

Going from `CCn1ncc(S(=O)(=O)Nc2cccnc2)c1C` to `CCn1cc(CN2CCCC(CNS(=O)(=O)c3cccc4cccnc34)C2)cn1` (centres unmarked), the “hERG current change (%, negative = inhibition) at 10uM” value rises from 5.02% to 17.8%.

Going from `COc1ccc(Cl)cc1NC(=O)Cn1nc(-c2ccc(C)cc2)n(C)c1=S` to `COc1ccccc1-n1c(C)nc2cc(C(=O)O)ccc21`, the “hERG current change (%, negative = inhibition) at 10uM” value rises from 1.98% to 12.7%.

First: COc1ccc(-c2cn[nH]c2-c2ccc(OC)cc2O)cc1
Second: CCOc1ccc(N=Nc2ccc(O)c3ncccc23)cc1
The “hERG current change (%, negative = inhibition) at 10uM” value of the first is lower: -8% for the first, 18% for the second.

Going from `Cc1cc(=O)oc2cc(OCCC[n+]3ccccc3)ccc12.[Br-]` to `O=C(O)c1oc2ccccc2c1-n1cccc1`, the “hERG current change (%, negative = inhibition) at 10uM” value rises from 1.4% to 27%.

First: C[C@H](NC(=O)OC(C)(C)C)c1nnc(SCC(=O)Nc2ccc(Br)cc2)o1
Second: O=C(CNc1ccc(Br)cc1)NNC1=NCCC1
The “hERG current change (%, negative = inhibition) at 10uM” value of the first is lower: -11.2% for the first, 1.72% for the second.

Compared with `O=C(O)CCS(=O)(=O)Cc1ccccc1F`, `O=C(NCc1ccccc1)NC(=O)c1ccncc1` is lower in “hERG current change (%, negative = inhibition) at 10uM” value: 17.7% for the first, 0.815% for the second.

First: Cc1c(N=Cc2ccc(O)c(Br)c2)cccc1[N+](=O)[O-]
Second: Cc1ccc([N+](=O)[O-])c(OCCN2CCC(Cc3ccccc3)CC2)c1.O=C(O)C(=O)O
The “hERG current change (%, negative = inhibition) at 10uM” value of the first is higher: 0.627% for the first, -73% for the second.

First: Cc1nn(CC(=O)NCCN2CCCCC2C)c(=O)c2cc(-c3ccccc3)nn12 (centres unmarked)
Second: Cc1cc(C)n(C2CCCCC2OC(=O)c2ccccc2)n1 (centres unmarked)
The “hERG current change (%, negative = inhibition) at 10uM” value of the first is lower: -48.4% for the first, 15% for the second.

First: N#C/C(=C(/O)COC(=O)c1ccccc1O)c1nc2ccccc2s1
Second: CC(NC(=O)CSc1nc2ccc(N)cc2s1)c1ccccc1 (centres unmarked)
The “hERG current change (%, negative = inhibition) at 10uM” value of the first is lower: 15% for the first, 32% for the second.

Compared with `Cc1cc(C(F)F)n2nc(C(=O)Nc3sc4c(c3C(N)=O)CCC4)nc2n1`, `Cc1ccc(C(=O)OCC(=O)Nc2sc3c(c2C#N)CCCCC3)cc1NC(=O)c1ccco1` is higher in “hERG current change (%, negative = inhibition) at 10uM” value: -60.9% for the first, -8.72% for the second.

Compared with `O=C1OCC/C1=C\c1ccccc1`, `S=c1[nH]nc(/C=C/c2ccccc2)o1` is higher in “hERG current change (%, negative = inhibition) at 10uM” value: 1.96% for the first, 24.4% for the second.

Compared with `O=C(COCc1cc(-c2ccc3c(c2)OCO3)on1)N1CCN(c2ccc(F)cc2)CC1`, `O=C(Cn1cnc2c(cnn2-c2ccc(F)cc2)c1=O)N1CCN(c2ccccc2F)CC1` is lower in “hERG current change (%, negative = inhibition) at 10uM” value: -3.9% for the first, -22.3% for the second.

Going from `Cc1c(NC(=O)C(C)n2cc([N+](=O)[O-])cn2)c(=O)n(-c2ccccc2)n1C` (centres unmarked) to `Cc1c(NC(=O)C(C)OC(=O)c2ncc(Cl)c(Cl)c2Cl)c(=O)n(-c2ccccc2)n1C` (centres unmarked), the “hERG current change (%, negative = inhibition) at 10uM” value falls from 19.4% to 2.05%.

Going from `O=C(Nc1ccccc1Cl)ON=C1c2ccccc2-c2ccccc21` to `Cc1c(NC(=O)c2cc(-c3ccccc3)on2)c(=O)n(-c2ccccc2)n1C`, the “hERG current change (%, negative = inhibition) at 10uM” value falls from -4.49% to -27.7%.

Going from `O=C(Cn1c(=O)oc2ccccc21)NCc1ccco1` to `CC(=O)Nc1ccc(S(=O)(=O)N(Cc2ccco2)Cc2cc3ccccc3[nH]c2=O)cc1`, the “hERG current change (%, negative = inhibition) at 10uM” value rises from 21.4% to 24.8%.

First: Cc1cccc(OCC(=O)Nc2ccc3c(c2)nc2n3CCOC2)c1
Second: COc1ccc(C(=O)Nc2ccc(S(=O)(=O)N3CCOCC3)cc2)cc1
The “hERG current change (%, negative = inhibition) at 10uM” value of the first is lower: -32.6% for the first, -3.15% for the second.

Compared with `O=C(c1[nH]ncc1[N+](=O)[O-])N1CCOCC1`, `Nc1nc(C2CCOCC2)cs1` is lower in “hERG current change (%, negative = inhibition) at 10uM” value: 16.4% for the first, 8.78% for the second.

Going from `COc1ccc(N(CC(O)Cn2cnc3ccccc32)S(=O)(=O)c2ccc(C)cc2)cc1` (centres unmarked) to `Cc1ccccc1Cn1cnc2ccccc21`, the “hERG current change (%, negative = inhibition) at 10uM” value rises from -58% to 7.06%.

First: Cc1cc(C)cc(NC(=O)[C@H](NC(=O)[C@@H]2Cc3ccccc3CN2)c2ccccc2)c1
Second: Cc1cc(C)cc(NC(=O)CCn2c(=O)c3cccn3c3ccccc32)c1
The “hERG current change (%, negative = inhibition) at 10uM” value of the first is higher: -0.0454% for the first, -1.37% for the second.

Going from `Cc1cc(SC(C)C(=O)Nc2c(C)n(C)n(-c3ccccc3)c2=O)nc2ccccc12` (centres unmarked) to `CC(C)n1c(O)c(N=NC(=O)c2ccccc2NS(=O)(=O)c2cccs2)c2ccccc21`, the “hERG current change (%, negative = inhibition) at 10uM” value rises from -6.76% to 4.34%.

Compared with `CC(/C=C1\SC(=S)N(NS(=O)(=O)c2ccc(C)cc2)C1=O)=C\c1ccccc1`, `CC(=O)c1cccc(NC(=O)C2CCCN(S(=O)(=O)c3ccc(F)cc3)C2)c1` (centres unmarked) is higher in “hERG current change (%, negative = inhibition) at 10uM” value: -5.35% for the first, -3.5% for the second.

First: Cc1[nH]c(=S)[nH]c(=O)c1CCC1OCCO1
Second: O=C(COC(=O)c1cc(Br)ccc1O)NCC1CCCO1 (centres unmarked)
The “hERG current change (%, negative = inhibition) at 10uM” value of the first is lower: -3.78% for the first, 4.13% for the second.

Going from `CCOc1ccc(C(=O)Nc2ccc(NC(=O)c3ccco3)c(Cl)c2)cc1Br` to `CC(=O)c1cccc(NC(=O)c2onc(C)c2Cl)c1`, the “hERG current change (%, negative = inhibition) at 10uM” value falls from 9.83% to 5.69%.

Going from `CC(=O)Nc1ccc(Br)cc1C(=O)C(=O)O` to `CC(=O)Nc1nnc(SCC(=O)N2CCc3ccccc32)s1`, the “hERG current change (%, negative = inhibition) at 10uM” value rises from -2.93% to 19.7%.

Compared with `N#Cc1cc(-c2ccccc2)nc(NN)n1`, `N#Cc1ccccc1CSc1nnc(-c2ccncc2)o1` is lower in “hERG current change (%, negative = inhibition) at 10uM” value: -5.6% for the first, -9.63% for the second.

First: CCc1ccc(NC(=S)Nc2ccc3[nH]c(=O)[nH]c3c2)cc1
Second: Cc1noc(C)c1COc1ccccc1C(=O)N(C)CC(=O)Nc1ccc(F)cc1
The “hERG current change (%, negative = inhibition) at 10uM” value of the first is higher: 11.3% for the first, -14.8% for the second.

Going from `COC(=O)/C=c1\sc2n(c1=O)C(C)=CC(C)(C)N=2` to `CCOC(=O)C1=C(COC(=O)c2ccc(OC(C)C)cc2)NC(=O)NC1C` (centres unmarked), the “hERG current change (%, negative = inhibition) at 10uM” value rises from 6.87% to 9.34%.

Compared with `Cc1ccc(C(=O)Nc2nnc(C3CCCCC3)s2)o1`, `COc1ccc(NC(=O)CSc2nnc(C3CCCCC3)n2N)cc1` is lower in “hERG current change (%, negative = inhibition) at 10uM” value: 8.68% for the first, 1.26% for the second.

First: CN(CC(=O)Nc1cccc(F)c1)C(=O)/C=C/c1cn(Cc2ccccc2)nc1-c1cccnc1
Second: COc1ccc(S(=O)(=O)N2CCCCCC2)cc1C(=O)N(C)CC(=O)Nc1ccc(F)cc1
The “hERG current change (%, negative = inhibition) at 10uM” value of the first is lower: -48.8% for the first, -0.16% for the second.

Going from `COc1ccc(CC(=O)N2CCN(c3ccccn3)CC2)cc1` to `COc1ccc(N2CCN(C(=O)c3ccc(S(=O)(=O)NCc4ccco4)cc3)CC2)cc1`, the “hERG current change (%, negative = inhibition) at 10uM” value falls from 7.79% to -54.7%.

First: Cn1nccc1C(=O)N1CCCC(C(=O)c2cccc3ccccc23)C1 (centres unmarked)
Second: CCN(CC)C(=O)Cn1cc(C(=O)C(=O)NCCCN2CCOCC2)c2ccccc21
The “hERG current change (%, negative = inhibition) at 10uM” value of the first is lower: -9.7% for the first, 2.7% for the second.

Compared with `Cc1cc(C)n(-c2nc3c(c(=O)[nH]c(=O)n3C)n2C)n1`, `Cc1cc(C)n2nc(SCC(=O)N(C)c3c(N)n(Cc4ccccc4)c(=O)[nH]c3=O)nc2n1` is higher in “hERG current change (%, negative = inhibition) at 10uM” value: 10.1% for the first, 28.1% for the second.

Compared with `CN(CCCNC(=O)C1CCN(S(=O)(=O)N2CCC3(CC2)OCCO3)CC1)Cc1ccccc1`, `CCOCCCNC(=O)C1CCC(CNS(=O)(=O)c2cccc3nsnc23)CC1` (centres unmarked) is lower in “hERG current change (%, negative = inhibition) at 10uM” value: 2.31% for the first, -19.1% for the second.

First: COCCOC(=O)C1=C(C)NC2=C(C(=O)CCC2)C1c1cc2c(cc1Br)OCO2 (centres unmarked)
Second: CCOc1cc(/C=C2\SC(=N)N(c3nonc3N)C2=O)ccc1OCCN1CCOCC1
The “hERG current change (%, negative = inhibition) at 10uM” value of the first is lower: -16.6% for the first, -7.52% for the second.

Compared with `CN(C/C=C/c1ccccc1)C1CCCCC1`, `CC(C)(C)c1ccccc1OCCCCN1CCCC1` is higher in “hERG current change (%, negative = inhibition) at 10uM” value: -21.7% for the first, -13.8% for the second.

Going from `COC(=O)Cn1c(=O)c2c(nc3n2CC(C)CN3Cc2ccccc2)n(C)c1=O` (centres unmarked) to `COc1ccc(N2CCN(CCNC(=O)CCCn3c(=O)[nH]c4cc(Cl)ccc4c3=O)CC2)cc1`, the “hERG current change (%, negative = inhibition) at 10uM” value falls from -38.1% to -48.5%.

First: CC(C)N(C(=O)COC(=O)c1ccc(Cl)s1)c1ccccc1
Second: COc1ccccc1CSc1nc2ccccc2[nH]1
The “hERG current change (%, negative = inhibition) at 10uM” value of the first is higher: 0.733% for the first, -12.5% for the second.

Going from `FC(F)(F)c1ccc2nnc(-c3c(Cl)cccc3Cl)n2c1` to `COC(=O)C(C)Sc1nc2c(cnn2-c2ccc(F)cc2)c(=O)[nH]1` (centres unmarked), the “hERG current change (%, negative = inhibition) at 10uM” value rises from -4.48% to 13.7%.

Going from `CN(C)S(=O)(=O)c1ccc(N2CCCC2)c(C(=O)Nc2nc3ccc(F)cc3s2)c1` to `Cc1nc2ccc(NC(=O)N3CCCCC3)cc2s1`, the “hERG current change (%, negative = inhibition) at 10uM” value rises from -37.1% to 0.154%.

First: Nc1c(Cl)cc(-c2csc(N3CCCC3c3nc4cc(Cl)c(Cl)cc4n3CCOCCO)n2)cc1Cl (centres unmarked)
Second: COc1ccc(CCC(=O)NC(C)C2CCCO2)cc1 (centres unmarked)
The “hERG current change (%, negative = inhibition) at 10uM” value of the first is lower: -0.601% for the first, 18.3% for the second.

`CC(NC(=O)c1ccco1)C(c1cccs1)N1CCOCC1` (centres unmarked) was tested, and the “hERG current change (%, negative = inhibition) at 10uM” value was 10.9%.

Reference: paper PMC4336329 (PLoS ONE, 2015)
